Experimental data as given in the supplement of paper PMC3334620.
In all, about 33,000 sequences were measured (“E-score (-0.5 to 0.5)”: median about -0.016, highest 2% from about 0.31 on). The list shows a part of the results.

Molecular target: Cst6 (UniProt P40535)
Assay: PBM E-score (8-mer binding enrichment) (E-score (-0.5 to 0.5)); higher = stronger / more preferred TF binding; most listed sequences are background and not binding sites
Conditions: protein concentration: 200 nM; construct: GST-DNA-binding domain
Method: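 Universal 'all 10-mer' protein binding microarrays (Agilent AMADID 015681) probed with GST-tagged S. cerevisiae TFs (full-length or DBD) made by in vitro transcription/translation (PURExpress), about 100-200 nM. Bound TF was detected with fluorescent anti-GST. Each ungapped 8-mer (which stands for itself and its reverse complement) is scored by the PBM enrichment score (E-score), a modified Wilcoxon-Mann-Whitney statistic from -0.5 to +0.5, computed with the Universal PBM Analysis Suite. Scale: above 0.35 generally sequence-specific binding.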

Sequence	PBM E-score
GAGTACTA	0.0861
ATCTGCGA	-0.23
CCCGATCG	-0.0185
ATGGAGTC	-0.0353
GAACTGCC	-0.222
GACCGATA	0.0222
CGGTGGAA	-0.107
GAAGATAA	0.136
CAAGTCAG	-0.131
AACTTAAG	0.0673
AGGGAAAG	-0.204
ACGCAACT	0.133
CTTGGATC	-0.119
AGACGACT	-0.34
GGATATCC	-0.0791
GAATATCC	0.0188
ATTGCTAA	0.188
CACATTAG	-0.113
CGGAACTA	0.049
GTAGCTAC	0.036
CCGCCTAG	-0.138
AATGGTCC	-0.0776
AGCAGTAG	-0.215
AAGCGCAA	-0.0221
AGACCAGA	-0.174

Sequence	PBM E-score
GATCCGCC	0.0101
ACTGTGGA	-0.14
AGGGAGGA	-0.278
ATTCCCTG	-0.0439
CGCCTGAC	0.106
GTCGAGCA	-0.301
GACTACCA	-0.05
CCGGGTAA	0.0368
GAGGCTGC	-0.199
CGAGCCCC	-0.298
CTGTATCA	0.00931
GAAGAATC	-0.0963
CACTCTGA	-0.088
CAGTTCGA	-0.142
ATTGTTGG	0.17
AGTGGGAA	-0.0276
CGATACCA	-0.0648
ACATTCTA	0.188
AACCGTGC	0.104
CCAATAGA	-0.0188
CTGACTAA	0.0104
CGGTAGCC	-0.151
GGGTATAA	-0.0811
CCGGCGTA	-0.134
GATTTTTA	0.163

Sequence	PBM E-score
CCTTCGAG	-0.21
AACGTGCA	0.0964
GATAGCCC	-0.303
CATCTGGA	-0.121
CTGCGAAA	0.0232
CGATCACC	0.0718
ACGACTCT	-0.147
AGCTGACT	-0.0426
CTGTAGTA	0.17
AGCACTAG	-0.135
GTTCATCA	0.117
GCAGATAC	0.0922
CTGATATA	0.179
ATCGCACA	0.0332
GCGCATGA	-0.043
CATGCACA	0.13
CAACCCTG	-0.0882
ACCTACGT	0.176
GGGACTTA	-0.34
CTACGAAG	-0.247
CCTCTCGA	-0.117
AGCATCCG	-0.0957
ATGCTCTG	-0.171
CAATGTTC	-0.0427
GGATTGTA	-0.0291

Sequence	PBM E-score
ACGGCGCC	0.364
AACGTGGG	-0.154
TGATTTAA	0.225
AAAGTCTC	-0.139
GCAATTGC	0.201
ACAGCGAG	-0.0516
CCACGTGA	0.0246
ATATAGGC	0.0227
ACCGAAAA	0.169
CAACAAGC	0.0945
AACCTTAA	0.105
GGGTGCTA	-0.0878
GGGGCTAA	-0.12
ACACTACC	-0.126
TACCTCCA	-0.251
AGTGCTAA	-0.0867
GTCAGCCA	0.0293
AGGGATTG	0.0457
GCGCGGTA	-0.0504
ACCCTATC	-0.0377
TCTGAGCA	-0.0929
GAGACGTA	0.148
ATTTGGAG	0.0131
ACATTAAA	0.198
CCTGTATA	-0.101

Sequence	PBM E-score
CGTACTCC	-0.0754
CCTATTTC	0.11
ACCGATCG	0.00376
AGTCATAT	0.153
CGACAGGA	0.0383
AAGCTTAG	0.0927
ACGGACCC	-0.172
AGAGACAC	-0.0892
ACGTAAAT	0.385
GCGAACCC	-0.206
AGAAAACT	0.156
CCATGTCC	-0.0555
CTGGGTCC	-0.343
AATGTCGT	0.195
GGCCGCAA	-0.164
CGAACGTA	0.1
ACACTAAA	0.0906
AGCGCGTC	-0.0646
GCAGCACC	-0.207
CGTTAGAA	0.101
ACTTCCTA	-0.249
ATACATTC	0.0532
CTAGGCAA	-0.0898
GACTTGCC	-0.333
AATGACAG	0.167

Sequence	PBM E-score
ACAAGAGA	-0.0878
CTCTGTCC	-0.283
CATCACGA	0.183
AATGACTC	0.0789
GTAACTAA	0.128
CGGGTGCA	-0.17
CAGTGGGC	-0.144
CAATGGCC	-0.314
CCCCTGCA	-0.296
GACATCAC	0.431
CAAACGCA	-0.0382
CATTGGAG	-0.0914
CGGTGCTA	-0.164
CATCTAAC	0.0128
AGCCCGGA	-0.369
CATATTGA	0.207
CCGTCGGC	-0.145
GACGTACA	0.25
GTTTCAGA	-0.0246
ACCCAAGA	-0.118
AGCGAGCC	-0.105
AGAGAGTC	-0.145
AACCGCCA	-0.0425
CCAGTCAC	-0.207
CTGCGGCA	0.182

Sequence	PBM E-score
CGTTACCC	-0.141
CAACCCGG	-0.262
TGATCAAA	0.147
ATAGTAAA	0.158
GAAATAGC	-0.0647
CCACCTAA	-0.0425
AGACCGCT	-0.257
CTCAGAAG	-0.19
ACGGGTGG	-0.0768
CATAACAA	0.225
ATGCTAAC	0.0681
ACTCCGAC	-0.133
CGCGCACA	0.144
AAAATGTC	0.238
AGCTCTGG	-0.234
AAAATTGC	0.0935
CATCGAGA	0.0229
CAATGGTG	-0.254
ATGGTTCC	-0.00483
GTGGGAGA	-0.263
CGACCGAG	-0.244
CAACTTGC	-0.135
